{"source": "paper PMC9911399", "about": "“Two distinct binding modes provide the RNA-binding protein RbFox with extraordinary sequence specificity”", "binders": {"B1": {"name": "AUCCGCU (DNA:RNA)", "RNA": "GGGAGACCGGAAUUCAGAUUGUCCAUCCGCUUUAAAUCCCGUCGUAGCCACCA", "DNA 1": "CAATCTGAATTCCGGTCTCCC", "DNA 2": "TGGTGGCTACGACGGGATT"}, "B2": {"name": "CCGUAAA (DNA:RNA)", "RNA": "GGGAGACCGGAAUUCAGAUUGUCCCCGUAAAUUAAAUCCCGUCGUAGCCACCA", "DNA 1": "CAATCTGAATTCCGGTCTCCC", "DNA 2": "TGGTGGCTACGACGGGATT"}, "B3": {"name": "ACGCCAG (DNA:RNA)", "RNA": "B2 RNA with C25A, U28C, A29C, A31G", "DNA 1": "CAATCTGAATTCCGGTCTCCC", "DNA 2": "TGGTGGCTACGACGGGATT"}, "B4": {"name": "GCGUUUC (DNA:RNA)", "RNA": "B2 RNA with C25G, A29U, A30U, A31C", "DNA 1": "CAATCTGAATTCCGGTCTCCC", "DNA 2": "TGGTGGCTACGACGGGATT"}, "B5": {"name": "GACAGCU (DNA:RNA)", "RNA": "B1 RNA with A25G, U26A, C28A", "DNA 1": "CAATCTGAATTCCGGTCTCCC", "DNA 2": "TGGTGGCTACGACGGGATT"}, "B6": {"name": "GAAUCCG (DNA:RNA)", "RNA": "B1 RNA with A25G, U26A, C27A, C28U, G29C, U31G", "DNA 1": "CAATCTGAATTCCGGTCTCCC", "DNA 2": "TGGTGGCTACGACGGGATT"}, "B7": {"name": "ACUCCUA (DNA:RNA)", "RNA": "B1 RNA with U26C, C27U, G29C, C30U, U31A", "DNA 1": "CAATCTGAATTCCGGTCTCCC", "DNA 2": "TGGTGGCTACGACGGGATT"}, "B8": {"name": "AGACACG (DNA:RNA)", "RNA": "B1 RNA with U26G, C27A, G29A, U31G", "DNA 1": "CAATCTGAATTCCGGTCTCCC", "DNA 2": "TGGTGGCTACGACGGGATT"}, "B9": {"name": "GCUCCAC (DNA:RNA)", "RNA": "B2 RNA with C25G, G27U, U28C, A29C, A31C", "DNA 1": "CAATCTGAATTCCGGTCTCCC", "DNA 2": "TGGTGGCTACGACGGGATT"}, "B10": {"name": "CUAGAUA (DNA:RNA)", "RNA": "B2 RNA with C26U, G27A, U28G, A30U", "DNA 1": "CAATCTGAATTCCGGTCTCCC", "DNA 2": "TGGTGGCTACGACGGGATT"}, "B11": {"name": "UUCGUCA (DNA:RNA)", "RNA": "B1 RNA with A25U, C28G, G29U, U31A", "DNA 1": "CAATCTGAATTCCGGTCTCCC", "DNA 2": "TGGTGGCTACGACGGGATT"}, "B12": {"name": "UGGCGCC (DNA:RNA)", "RNA": "B1 RNA with A25U, U26G, C27G, U31C", "DNA 1": "CAATCTGAATTCCGGTCTCCC", "DNA 2": "TGGTGGCTACGACGGGATT"}, "B13": {"name": "CAGCUGA (DNA:RNA)", "RNA": "B2 RNA with C26A, U28C, A29U, A30G", "DNA 1": "CAATCTGAATTCCGGTCTCCC", "DNA 2": "TGGTGGCTACGACGGGATT"}, "B14": {"name": "AUAGAAG (DNA:RNA)", "RNA": "B1 RNA with C27A, C28G, G29A, C30A, U31G", "DNA 1": "CAATCTGAATTCCGGTCTCCC", "DNA 2": "TGGTGGCTACGACGGGATT"}, "B15": {"name": "GCUGUAU (DNA:RNA)", "RNA": "B2 RNA with C25G, G27U, U28G, A29U, A31U", "DNA 1": "CAATCTGAATTCCGGTCTCCC", "DNA 2": "TGGTGGCTACGACGGGATT"}, "B16": {"name": "UGGUGUG (DNA:RNA)", "RNA": "B2 RNA with C25U, C26G, A29G, A30U, A31G", "DNA 1": "CAATCTGAATTCCGGTCTCCC", "DNA 2": "TGGTGGCTACGACGGGATT"}, "B17": {"name": "CCCAGAU (DNA:RNA)", "RNA": "B1 RNA with A25C, U26C, C28A, C30A", "DNA 1": "CAATCTGAATTCCGGTCTCCC", "DNA 2": "TGGTGGCTACGACGGGATT"}, "B18": {"name": "CCUUGUC (DNA:RNA)", "RNA": "B2 RNA with G27U, A29G, A30U, A31C", "DNA 1": "CAATCTGAATTCCGGTCTCCC", "DNA 2": "TGGTGGCTACGACGGGATT"}, "B19": {"name": "CUUCAUC (DNA:RNA)", "RNA": "B1 RNA with A25C, C27U, G29A, C30U, U31C", "DNA 1": "CAATCTGAATTCCGGTCTCCC", "DNA 2": "TGGTGGCTACGACGGGATT"}, "B20": {"name": "AAGAGUA (DNA:RNA)", "RNA": "B1 RNA with U26A, C27G, C28A, C30U, U31A", "DNA 1": "CAATCTGAATTCCGGTCTCCC", "DNA 2": "TGGTGGCTACGACGGGATT"}, "B21": {"name": "AUGAGGA (DNA:RNA)", "RNA": "B1 RNA with C27G, C28A, C30G, U31A", "DNA 1": "CAATCTGAATTCCGGTCTCCC", "DNA 2": "TGGTGGCTACGACGGGATT"}, "B22": {"name": "GCCGCCG (DNA:RNA)", "RNA": "B1 RNA with A25G, U26C, C28G, G29C, U31G", "DNA 1": "CAATCTGAATTCCGGTCTCCC", "DNA 2": "TGGTGGCTACGACGGGATT"}, "B23": {"name": "ACGACUU (DNA:RNA)", "RNA": "B1 RNA with U26C, C27G, C28A, G29C, C30U", "DNA 1": "CAATCTGAATTCCGGTCTCCC", "DNA 2": "TGGTGGCTACGACGGGATT"}, "B24": {"name": "ACGGUUA (DNA:RNA)", "RNA": "B2 RNA with C25A, U28G, A29U, A30U", "DNA 1": "CAATCTGAATTCCGGTCTCCC", "DNA 2": "TGGTGGCTACGACGGGATT"}, "B25": {"name": "AUUCACC (DNA:RNA)", "RNA": "B1 RNA with C27U, G29A, U31C", "DNA 1": "CAATCTGAATTCCGGTCTCCC", "DNA 2": "TGGTGGCTACGACGGGATT"}, "B26": {"name": "AAACAGU (DNA:RNA)", "RNA": "B1 RNA with U26A, C27A, G29A, C30G", "DNA 1": "CAATCTGAATTCCGGTCTCCC", "DNA 2": "TGGTGGCTACGACGGGATT"}, "B27": {"name": "CACCUAC (DNA:RNA)", "RNA": "B1 RNA with A25C, U26A, G29U, C30A, U31C", "DNA 1": "CAATCTGAATTCCGGTCTCCC", "DNA 2": "TGGTGGCTACGACGGGATT"}, "B28": {"name": "CAUGGGG (DNA:RNA)", "RNA": "B1 RNA with A25C, U26A, C27U, C28G, C30G, U31G", "DNA 1": "CAATCTGAATTCCGGTCTCCC", "DNA 2": "TGGTGGCTACGACGGGATT"}, "B29": {"name": "GUGCUGC (DNA:RNA)", "RNA": "B1 RNA with A25G, C27G, G29U, C30G, U31C", "DNA 1": "CAATCTGAATTCCGGTCTCCC", "DNA 2": "TGGTGGCTACGACGGGATT"}, "B30": {"name": "AAUCUUU (DNA:RNA)", "RNA": "B1 RNA with U26A, C27U, G29U, C30U", "DNA 1": "CAATCTGAATTCCGGTCTCCC", "DNA 2": "TGGTGGCTACGACGGGATT"}, "B31": {"name": "CCAGCUA (DNA:RNA)", "RNA": "B2 RNA with G27A, U28G, A29C, A30U", "DNA 1": "CAATCTGAATTCCGGTCTCCC", "DNA 2": "TGGTGGCTACGACGGGATT"}}, "note": "Numbering of substitutions follows the chain as printed; changes in the protein carry UniProt numbers. The list shows a part of the results."}
{"target": "T1, RBFOX1 RRM RbFoxmut (Fox-RRM*) (Homo sapiens, UniProt Q9NWB1 109-208, R118D;E147R;N151S;E152T)", "T1 sequence": "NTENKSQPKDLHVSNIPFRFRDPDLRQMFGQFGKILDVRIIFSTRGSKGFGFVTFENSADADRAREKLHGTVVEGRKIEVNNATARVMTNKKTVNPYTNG", "experiment": "EMSA; HiTS-Eq, 1 nM pool, 10 min; buffer printed only for the single-RNA assays: 10 mM Tris pH 7.5, 150 mM NaCl, 3.4 mM EDTA, 0.001% NP-40, 30 C", "conditions": "tags: His6 N-terminal (pET28a); label: 5' 32P", "in_short": "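Purified RbFox RRM (wild type or mutant) was equilibrated for 10 min in 50 µL with 1 nM of a 5′-radiolabelled pool of RNA with 7 randomized nucleotides, its flanks annealed to DNA oligonucleotides, across increasing protein concentrations. Free RNA was separated by 8% native PAGE, excised, reverse-transcribed, PCR-barcoded and sequenced on an Illumina HiSeq 2500. Relative association constants came from read-count changes of each variant against the control reaction, normalised to the cognate motif.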"}
{"binder": "B1", "binding signal": "0.121 KA relative to UGCAUGU"}
{"binder": "B2", "binding signal": "0.101 KA relative to UGCAUGU"}
{"binder": "B3", "binding signal": "0.117 KA relative to UGCAUGU"}
{"binder": "B4", "binding signal": "0.135 KA relative to UGCAUGU"}
{"binder": "B5", "binding signal": "0.0646 KA relative to UGCAUGU"}
{"binder": "B6", "binding signal": "0.219 KA relative to UGCAUGU"}
{"binder": "B7", "binding signal": "0.0629 KA relative to UGCAUGU"}
{"binder": "B8", "binding signal": "0.0776 KA relative to UGCAUGU"}
{"binder": "B9", "binding signal": "0.0793 KA relative to UGCAUGU"}
{"binder": "B10", "binding signal": "0.091 KA relative to UGCAUGU"}
{"binder": "B11", "binding signal": "0.123 KA relative to UGCAUGU"}
{"binder": "B12", "binding signal": "0.139 KA relative to UGCAUGU"}
{"binder": "B13", "binding signal": "0.0845 KA relative to UGCAUGU"}
{"binder": "B14", "binding signal": "0.142 KA relative to UGCAUGU"}
{"binder": "B15", "binding signal": "0.131 KA relative to UGCAUGU"}
{"binder": "B16", "binding signal": "0.498 KA relative to UGCAUGU"}
{"binder": "B17", "binding signal": "0.0766 KA relative to UGCAUGU"}
{"binder": "B18", "binding signal": "0.226 KA relative to UGCAUGU"}
{"binder": "B19", "binding signal": "0.0532 KA relative to UGCAUGU"}
{"binder": "B20", "binding signal": "0.15 KA relative to UGCAUGU"}
{"binder": "B21", "binding signal": "0.0761 KA relative to UGCAUGU"}
{"binder": "B22", "binding signal": "0.0891 KA relative to UGCAUGU"}
{"binder": "B23", "binding signal": "0.0809 KA relative to UGCAUGU"}
{"binder": "B24", "binding signal": "0.128 KA relative to UGCAUGU"}
{"binder": "B25", "binding signal": "0.0656 KA relative to UGCAUGU"}
{"binder": "B26", "binding signal": "0.0544 KA relative to UGCAUGU"}
{"binder": "B27", "binding signal": "0.123 KA relative to UGCAUGU"}
{"binder": "B28", "binding signal": "0.0893 KA relative to UGCAUGU"}
{"binder": "B29", "binding signal": "0.124 KA relative to UGCAUGU"}
{"binder": "B30", "binding signal": "0.0586 KA relative to UGCAUGU"}
{"binder": "B31", "binding signal": "0.108 KA relative to UGCAUGU"}
